Results on 95 compounds are retold here after PubChem BioAssay AID1159614 (National Center for Advancing Translational Sciences (NCATS), 2016).

Among all 45,000 compounds or so, about 65 (0.1%) were called active. The call rests on the fitted dose curve; in most records, active means well fitted activation curve with a large enough effect; inconclusive means small, poorly fitted or top-dose-only effect; inactive means no such curve, though single readings can be large or run the other way. This is one part of the list.

The experiment addresses Galactocerebrosidase (Homo sapiens) (UniProt P54803). Description: A Novel Cell-Based Assay to Identify Small Molecules for B -Galactocerebrosidase. Further: 0% is about no effect; nearly all actives have a fitted effect of over 65% in size. Particulars: 145M-Twi-hGALC-G270D cells (Twitcher mouse brain line with human GALC G270D), HMU-beta-Gal fluorescence, 48 h; series mostly up to 57.5 µM; activation: at the top concentration. In a few lines: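 Live 145M-Twi cells (Twitcher mouse brain-derived, GALC-null) stably expressing human GALC-G270D, with a wild-type GALC line, were compound-treated. Residual GALC activity was then read as fluorescence from 0.1 mM final HMU-β-gal at pH 5.2; higher signal means activation.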
Chain of UniProt P54803 (P54803 whole entry, looked up): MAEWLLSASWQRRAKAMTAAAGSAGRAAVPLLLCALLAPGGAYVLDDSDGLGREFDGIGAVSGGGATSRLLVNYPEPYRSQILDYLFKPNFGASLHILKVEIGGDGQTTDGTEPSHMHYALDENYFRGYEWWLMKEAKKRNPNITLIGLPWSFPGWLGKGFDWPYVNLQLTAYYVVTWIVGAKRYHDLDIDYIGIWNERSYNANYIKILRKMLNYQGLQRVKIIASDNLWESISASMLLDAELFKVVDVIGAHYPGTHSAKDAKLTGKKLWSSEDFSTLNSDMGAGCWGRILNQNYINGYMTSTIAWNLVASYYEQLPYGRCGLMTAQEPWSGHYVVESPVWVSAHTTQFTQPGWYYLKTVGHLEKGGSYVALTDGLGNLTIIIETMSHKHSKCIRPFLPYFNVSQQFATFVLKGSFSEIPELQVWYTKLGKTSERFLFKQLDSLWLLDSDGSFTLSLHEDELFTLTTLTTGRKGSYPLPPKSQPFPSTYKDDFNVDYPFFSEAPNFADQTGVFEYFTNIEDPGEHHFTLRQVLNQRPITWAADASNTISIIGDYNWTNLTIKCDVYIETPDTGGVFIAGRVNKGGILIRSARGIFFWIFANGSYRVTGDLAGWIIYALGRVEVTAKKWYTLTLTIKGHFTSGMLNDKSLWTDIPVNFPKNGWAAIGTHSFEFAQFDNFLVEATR
For `CCOC(=O)c1ccc(CN(Cc2ccccc2C)S(=O)(=O)c2ccc(F)c(C(=O)Nc3cccc(OC)c3)c2)cc1`, the “activation” value is inactive: -13%.

Regarding `O=C(CC1C(=O)N(c2ccccc2)C(=O)N1Cc1ccc2c(c1)OCO2)Nc1ccccc1` (stereo not given), the “activation” value is inactive: -6.89%. In the case of `Cc1c(C)n(Cc2ccc(F)cc2)c2ccc(C(=O)Nc3ccc(Cl)cc3)cc12` it was inactive: 0.588%; in that of `Cc1ccc(-c2cc3c(n2-c2ccccc2F)CC(C)(C)CC3=O)cc1`, inactive: -18.6%; in that of `O=C1CC(c2nnc(Cc3ccccc3Cl)o2)CN1c1ccccc1` (stereo not given), inactive: -7.8%. In the case of `COc1ccc(C)cc1NC(=O)N1CCN(c2cc(-c3noc(C)n3)ccc2C)CC1` it was inactive: -7.68%. As for `COc1ccc(NC(=O)CN2C(=O)COc3ccc(S(=O)(=O)N4CCCCC4)cc32)cc1Cl`, the figure is inactive: 2.19%; as for `O=C(CN1C(=O)CSc2ccc(S(=O)(=O)N3CCCC3)cc21)NCc1ccc(Cl)cc1`, inactive: -8.34%. Turning to `CCOC(=O)c1cnc2ccc(C)cc2c1NCCc1ccc(OC)c(OC)c1`, the “activation” value is inactive: -10.6%. In the case of `Cc1ccc(NC(=O)c2sc3nc(-c4ccc(F)cc4)ccc3c2N)cc1F` it was inactive: -14.8%; in that of `COc1ccc(NC(=O)c2oc3ccccc3c2NC(=O)Cc2cccs2)cc1`, inactive: 17%. In the case of `O=C(Cn1cc(C(=O)C2CC2)c2ccccc21)Nc1ccc(Br)cc1`, the “activation” value was inactive: -15.9%. As for `COc1ccccc1N1CCN(c2ccc(-c3nc(-c4ccccc4)no3)cc2[N+](=O)[O-])CC1`, the figure is inactive: -1.08%. In the case of `CCC1CCCCN1CCCNC(=O)c1ccc2c(c1)N(Cc1ccc(Cl)cc1)C(=O)c1ccccc1S2(=O)=O` (stereo not given) it was inactive: -13.4%; in that of `CC(=O)c1ccc(NC(=O)CCCc2nc(-c3cccc(C)c3)no2)cc1`, inactive: -25.8%; in that of `Cc1ccc(C)c(Cn2c(=O)n(CCCCCC(=O)NCc3ccc4c(c3)OCO4)c(=O)c3sccc32)c1`, inactive: -21.6%. On to `O=S(=O)(Nc1cccc(-c2ccc(N3CCCC3)nn2)c1)c1ccc(F)cc1F`, for which the “activation” value is inactive: 0.501%.

With `Cc1ccc(S(=O)(=O)c2nc(-c3cccc(C)c3)oc2N2CCCCC2)cc1`, the “activation” value was inactive: -8.65%. On to `Cc1ccccc1-n1c(=O)c2c3c(sc2n2cnnc12)CCCC3`, for which the “activation” value was inactive: -26.3%.

On to `COc1ccc(CNC(=O)C2CCN(c3nnc(-n4cccc4CNc4ccc(C)cc4)s3)CC2)c(OC)c1`, for which the “activation” value is inactive: 1.98%. As for `COc1ccc(Cn2ccnc2SCC(=O)Nc2cc(C(F)(F)F)ccc2Cl)cc1`, the figure is inactive: -9.54%. As for `COc1cccc(Nc2sc(C(=O)c3ccc(F)cc3)c(N)c2C(=O)NCc2ccc(C)cc2)c1`, the figure is inactive: -25.3%; as for `CCN(CC)C(=O)Cn1c(=O)cc(C)c2c(C)nn(C)c21`, inactive: -12.7%.

With `CCOC(=O)c1ccccc1NC(=O)c1sc2ccccc2c1Cl`, the “activation” value is inactive: -16.6%. As for `COc1ccc(-c2cn3nc(N4CCCC(C(=O)NCc5ccccc5C)C4)sc3n2)cc1` (stereo not given), the “activation” value was inactive: -12.4%. In the case of `COc1ccc(NC(=O)CSc2c3c(nc4ccccc24)CCC3)c(OC)c1` it was inactive: -19.5%; in that of `COc1ccc(N2CCN(C(=O)CN(C)S(=O)(=O)c3cccs3)CC2)cc1`, inactive: 2.67%; in that of `Cc1ccc(Cl)cc1N1CCN(C(=O)c2cc(S(=O)(=O)N3CCCCCC3)cn2C)CC1`, inactive: -10%. In the case of `Cc1cc(Cl)ccc1Nc1ncnc2onc(C)c12` it was inactive: -7.27%. As for `CN(Cc1ccc(F)cc1)S(=O)(=O)c1nnc(NC(=O)c2ccc(F)cc2)s1`, the figure is inactive: 6.99%; as for `COc1cccc(NC(=O)CSCn2nnc3c(=O)[nH]c(Cc4ccc(F)cc4)nc32)c1`, inactive: -10.6%. Consider `O=C(Nc1ccccc1Cl)C1CCN(c2nc3ccccc3[nH]2)CC1`, for which the “activation” value is inactive: -7.08%. As to `Fc1ccccc1OCc1nc(-c2ccc(-n3cccc3)cc2)no1`, the “activation” value was inactive: -0.37%. In the case of `O=C(CN(CCc1ccccc1)S(=O)(=O)c1ccccc1)NCc1ccc(Cl)cc1` it was inactive: -27.9%; in that of `COc1cc(CNc2ccc3c(c2)ncn3C(C)C)cc(OC)c1OC`, inactive: -20.4%. On to `COc1ccc(NC(=O)C2CCCN(S(=O)(=O)c3ccc4c(c3)CCCN4C(C)=O)C2)cc1` (stereo not given), for which the “activation” value was inactive: 6.39%. In the case of `COC(=O)c1ccc2c(c1)N(CC(=O)Nc1cccc(C(F)(F)F)c1)C(=O)c1ccccc1S2` it was inactive: -12.9%; in that of `O=C(CSc1nc2c([nH]c3ccccc32)c(=O)n1-c1ccccc1F)Nc1ccccc1C(F)(F)F`, inactive: -6.61%; in that of `O=C(NCCCN1CCN(c2ccc(F)cc2)CC1)c1sc2ncccc2c1-n1cccc1`, inactive: -30.4%. In the case of `O=C(Cn1ccn(-c2cccc(Cl)c2)c(=O)c1=O)c1ccc(F)cc1` it was inactive: 1.95%; in that of `Cc1ccc(NC(=O)CCS(=O)(=O)c2ccc(Br)cc2)c(C)c1`, inactive: -15.2%.

Regarding `CCOc1ccc(CNC(=O)c2[nH]c3ccccc3c2Sc2ccc(C)cc2)cc1`, the “activation” value was inactive: -9.82%. In the case of `Cc1ccc2c(c1)CC(C)N2S(=O)(=O)c1nnc(NC(=O)c2ccccc2F)s1` (stereo not given) it was inactive: -9.91%; in that of `CC(C)c1ccccc1NC(=O)CN(c1ccccc1)S(=O)(=O)N(C)C`, inactive: -11.2%. In the case of `CCOc1ccc(-c2nn(-c3ccccc3)cc2C2NC(=O)NC(C)=C2C(=O)OC(C)C)cc1C` (stereo not given) it was inactive: -29.6%; in that of `O=C1C(c2ccc(F)cc2)N(Cc2ccccc2Cl)C(=O)CN1C1CCCCC1` (stereo not given), inactive: -15.8%; in that of `Cc1cc(C)cc(NC(=O)CCS(=O)(=O)c2ccc3nc(C)sc3c2)c1`, inactive: -8.43%. Regarding `Cc1ccc(-n2nc(CO)c(C(=O)NCCCCc3ccccc3)n2)cc1`, the “activation” value is inactive: -7.84%. In the case of `CCOC(=O)c1cc(-c2ccccc2)n(CCC(=O)Nc2ccc(C)cc2Cl)c1C` it was inactive: -9.08%; in that of `Cc1ccc2c(c1)C(=O)C(=O)N2Cc1ccc(OC(C)C)cc1`, inactive: -38.4%; in that of `COc1ccc(OC)c(S(=O)(=O)N2Cc3ccccc3CC2C(=O)Nc2ccc(Cl)cc2)c1` (stereo not given), inactive: -6.42%. In the case of `O=C(Nc1ccc(F)cc1)C1CCCN(c2ncnc3c2nc2n3CCCCC2)C1` (stereo not given) it was inactive: -8.74%; in that of `Cc1ccc(N(C)C(=O)Cn2cc(S(=O)(=O)N3CCCC3)c(S(=O)(=O)N3CCCC3)c2)cc1`, inactive: -12.8%. As for `O=C(Nc1cc2ccc(O)cc2oc1=O)c1ccc(F)cc1`, the figure is inactive: 21.8%; as for `CCOC(=O)c1[nH]c(C)c(CCC(=O)NC(C)c2ccccc2)c1C` (stereo not given), inactive: -17%; as for `CCOC(=O)c1ccc(NC(=O)C(C)N(c2ccc(OCC)cc2)S(C)(=O)=O)cc1` (stereo not given), inactive: -13.5%. With `Cc1c(C(=O)Nc2ccc(F)c(F)c2)oc2ccc(S(=O)(=O)N(C)C3CCCCC3)cc12`, the “activation” value is inactive: -9.38%. As for `COc1ccc(CNC(=O)c2cc3c(=O)n4cccc(C)c4nc3s2)cc1`, the figure is inactive: -8.65%; as for `COc1cccc(CNC(=O)c2oc3ccc4c(c3c2C)C(=O)CC(C)(C)O4)c1OC`, inactive: -8.68%.

Turning to `COc1ccc(CCNC(=O)CCCCn2c(=O)c3ccccc3n(Cc3ccc(Cl)cc3)c2=O)cc1OC`, the “activation” value is inactive: -1.07%.

For the compound `Cc1cccc(CNC(=O)Cc2ccc(NC(=O)N3CCCCc4ccccc43)cc2)c1`, the “activation” value is inactive: -6.16%. In the case of `CCOc1ccc(-c2cn3c(n2)sc2cc(C(=O)NCCCN(CC)CC)ccc23)cc1` it was inactive: -15.2%; in that of `CCN(CC)CCn1c2c(c(SCC(=O)Nc3cccc(C(F)(F)F)c3)nc1=O)CCC2`, inactive: 4.48%. As for `CCOC(=O)C1=C(CN2CCN(c3cccc(OC)c3)CC2)NC(=O)NC1c1ccc(OC)cc1` (stereo not given), the figure is inactive: -12.9%; as for `Cn1c(=O)c2c(n3ncnc13)NC(=O)CC2c1cccc(F)c1` (stereo not given), inactive: 2.83%; as for `COc1ccc(NS(=O)(=O)c2ccc3c(c2)CC(C)N3C(C)=O)c(OC)c1` (stereo not given), inactive: -4.09%.

On to `C=Cc1ccc(CSc2nnc(C)n3c2cc2occc23)cc1`, for which the “activation” value was inactive: -12.8%.

For the compound `Cc1ccc(-n2c(=O)c3c(cnn3C)n(CC(=O)Nc3c(C)cccc3C)c2=O)cc1`, the “activation” value is inactive: -9.23%. As for `COc1ccc(NC(=O)c2oc3c(c2C)-c2nn(Cc4ccccc4Cl)cc2CC3)cc1OC`, the figure is inactive: -20.6%.

Regarding `Cc1ccc(C(=O)Nc2nc(-c3nnn(-c4cccc(Cl)c4C)c3C)ns2)cc1C`, the “activation” value was inactive: -14%. Regarding `COc1cccc(-c2nc(CS(=O)(=O)CC(=O)NCCc3ccc(OC)c(OC)c3)c(C)o2)c1`, the “activation” value was inactive: -19.5%. As for `CC(=O)OCc1cnc(C)c2oc(=O)c(C(=O)Nc3ccc(C)cc3Cl)cc12`, the figure is inactive: -16.4%; as for `COc1ccc(-c2coc3c2c(C)cc2oc(=O)c(C)c(C)c23)cc1`, inactive: -12.7%; as for `CC1CCC(Nc2ncnc3onc(-c4ccc(Cl)cc4)c23)CC1` (stereo not given), inactive: -19.9%. Take `Cc1ccccc1NC(=O)CSc1nc2ccc(NC(=O)c3ccccc3)cc2s1`: the “activation” value is inactive: -2.21%. As for `COc1ccc(NC(=O)C2=C(C)C(=O)OC23CCN(C(C)C)CC3)cc1Cl`, the figure is inactive: 3.71%.

Consider `Cc1ccccc1CN1C(=O)C(O)(CC(=O)c2ccccc2)c2cc(Cl)ccc21` (stereo not given), for which the “activation” value is inactive: -24%. In the case of `Cc1cccc(OCC(=O)Nc2ccc3nc(Nc4cccc(C(F)(F)F)c4)cc(C)c3c2)c1` it was inactive: 1.82%; in that of `Cc1ccc(CNC(=O)c2oc3ccc(S(=O)(=O)N4CCC(C)CC4)cc3c2C)cc1`, inactive: -7.58%. As for `CCCCNC(=O)c1cc2c(=O)n3cccc(C)c3nc2s1`, the figure is inactive: -7.65%. As for `COc1ccccc1CNC(=O)c1ccc2c(c1)N(Cc1cc(C)ccc1C)C(=O)c1ccccc1S2`, the figure is inactive: -14%.

Take `Cc1ccc(-n2ncc(C(=O)N3CCN(Cc4ccccc4)CC3)c2C2CCN(C(=O)OC(C)(C)C)CC2)cc1`: the “activation” value is inactive: -11.4%. As for `CC(=O)c1cc(-c2ccccc2)n(CCC(=O)Nc2ccc(C(C)C)cc2)c1C`, the figure is inactive: -11.4%; as for `COc1ccc(-c2cc(C(F)(F)F)n3nc(C(=O)O)c(Cl)c3n2)cc1OC`, inactive: 7.33%. In the case of `CCOc1ccc(NC(=O)Cn2cc(C(=O)c3ccc(F)cc3)c(=O)c3cc4c(cc32)OCCO4)cc1` it was inactive: -14.6%; in that of `CC(C)(C)OC(=O)N1CCC(c2c(C(=O)NCCN3CCCC3)cnn2-c2ccc(Cl)cc2)CC1`, inactive: -4.91%; in that of `COc1ccc(NC(=O)Cn2cnc3ccc(S(=O)(=O)N4CCC(C)CC4)cc3c2=O)cc1Cl`, inactive: -10.5%. On to `Cc1ccc(-n2ccnc(NCCc3ccc(S(N)(=O)=O)cc3)c2=O)c(C)c1`, for which the “activation” value was inactive: -8.17%. As for `Cc1oc(-c2ccc(C(=O)NCc3ccc(F)cc3)cc2)nc1CS(=O)c1ccccc1` (stereo not given), the figure is inactive: -6.23%; as for `CCOc1ccc(/C=C/c2nc(C#N)c(NC3CCCCC3)o2)cc1`, inactive: -10.2%.

Consider `COc1ccccc1OCCn1c(C(C)Oc2ccccc2)nc2ccccc21` (stereo not given), for which the “activation” value is inactive: -12.7%. As for `COc1ccccc1-c1nnc(SCC(N)=O)o1`, the figure is inactive: -6.59%. `CC(C)c1ccc(NC(c2nnc(-c3ccccc3)o2)c2ccc(F)cc2Cl)cc1` (stereo not given): the “activation” value was inactive: -5.65%. In the case of `CCN(CC)CCNC(=O)c1ccc(-c2nc(CS(=O)(=O)c3ccc(C)cc3)c(C)o2)cc1` it was inactive: -19.6%.

With `CC(=O)c1cc2c(cc1N/C(=N/S(=O)(=O)c1ccccc1)c1ccc(Cl)cc1)OCO2`, the “activation” value is inactive: -7.74%.
